Source: PubChem BioAssay AID1487 (National Center for Advancing Translational Sciences (NCATS), 2009)
Among all 200,000 compounds or so, about 25 (0.01%) were called active. Not shown: some 23% with an inconclusive outcome. The call rests on the fitted dose curve; in most records, active means well fitted inhibition curve with a large enough effect in the signal ratio, with a control signal flat (not every such curve was filed as active); inconclusive means small, poorly fitted or top-dose-only effect, or effect the other way, or a change in a side signal; inactive means flat fitted curve, though single readings scatter; the % refers to the signal ratio. This is a selection; strong and weak results do not stand in their true shares.

Assay: qHTS Assay for Modulators of Lamin A Splicing
Conditions: HeLa LMNA splicing GFP/RFP minigene ratio, 48 h; series mostly up to 46.1 µM; ratio change, negative = inhibition: at the top concentration
In short: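 S3 HeLa stable clones carrying a lamin A-EGFP splicing minigene plus DsRed2 were seeded at 600 cells/well in Opti-MEM with 2% FBS, pin-dosed and incubated 48 h at 37°C. Acumen cytometry (488 nm) gave the GFP/RFP total-intensity ratio.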
On the % scale 0 is the no-effect control and ±100 the full control effect; potency means the concentration at half of the fitted maximal effect.

Structure (SMILES)	ratio change, negative = inhibition	Potency
COc1ccc(-c2cc(=O)c3cc(OC)ccc3o2)cc1	inactive: 6.29% [at 46 µM]	–
O=C(O)/C=C\c1ccc(O)c(O)c1	inactive: -9.84%	–
Cc1cccc(C)c1OCC(C)N (stereo unspecified)	inactive: -9.57%	–
COc1cc2c(cc1OC)C1Cc3ccc(OC)c(OC)c3CN1CC2 (stereo unspecified)	inactive: -11.9%	–
CN(C)CCO[C@@H](c1ccc(Cl)cc1)c1ccccn1	inactive: -7.67%	–
O=C(O)C1CCCNC1 (stereo unspecified)	–	inactive
O=c1ccc2cc(O)c(O)cc2o1	inactive: -16.9%	–
COc1ccc(C2CNC(=O)C2)cc1OC1CCCC1 (stereo unspecified)	–	inactive
CC(=O)OC[C@H]1O[C@@H](Sc2cccc3cccnc23)[C@H](OC(C)=O)[C@@H](OC(C)=O)[C@@H]1OC(C)=O	inactive: -6.54%	–
O=C1OCCN1/N=C/c1ccc([N+](=O)[O-])o1	inactive: -11.8%	–
O=C1C2=C(c3ccccc31)[N+](=O)C1CCCCC1N2[O-] (stereo unspecified)	inactive: 8.79%	–
O=C(NNc1c2ccccc2nc2ccccc12)c1ccccc1O	–	active: 17.8 µM
CN(C)c1nc(N(C)C)nc(N(C)C)n1	inactive: 2.79%	–
O=C(O)c1cc(-c2ccccc2)nc2ccccc12	inactive: 0.635%	–
C[C@H]1C[C@@H]2[C@H]([C@@H](O)C[C@@]3(C)[C@H]2CC[C@]3(O)C(=O)CO)[C@@]2(C)C=CC(=O)C=C12	inactive: 1.72%	–
CCCNCC(O)COc1ccccc1C(=O)CCc1ccccc1 (stereo unspecified)	inactive: 2.79%	–
CC(C)NC[C@@H](O)COc1cccc2ccccc12	–	inactive
Cc1nc2nc(C)c(CCC(=O)NCCCN3CCN(c4cccc(Cl)c4)CC3)c(C)n2n1	inactive: -3.5%	–
CC1(C)CC(=O)c2sc(NC(=O)CCS(=O)(=O)c3ccccc3)nc2C1	–	active: 4.47 µM
COc1ccc([C@H]2Sc3ccccc3N(CCN(C)C)C(=O)[C@H]2OC(C)=O)cc1	inactive: -10%	–
CC(=O)OCC1OC(Sc2cccc3cccnc23)C(OC(C)=O)C(OC(C)=O)C1OC(C)=O (stereo unspecified)	inactive: -4.11%	–
COc1ccc2c(OC)c3ccoc3nc2c1OC	inactive: 3.63% [at 46 µM]	–
Cc1nnc(NS(=O)(=O)c2ccc(N)cc2)s1	–	inactive
CC(C(=O)O)c1ccc(N2Cc3ccccc3C2=O)cc1 (stereo unspecified)	inactive: -2.08%	–
CCn1nc(C(=O)O)c(=O)c2cc3c(cc21)OCO3	inactive: -12%	–
CC(=O)O[C@H]1C[C@@]2(C)[C@H](C[C@@H](O)[C@H]3[C@@]4(C)CC[C@@H](O)[C@@H](C)[C@H]4CC[C@@]32C)C1=C(CCC=C(C)C)C(=O)O	inactive: -10.1%	–

Structure (SMILES)	ratio change, negative = inhibition	Potency
O=C(O)[C@@H]1CCCNC1	inactive: -8.13%	–
Cc1nnc2c3ccccc3c(-c3cccs3)nn12	–	active: 7.94 µM
CCN(CC)CCOc1ccc2nc(N(C)C)sc2c1	inactive: -11.1%	–
CC(C)CC(=O)N[C@H](C(=O)N[C@H](C(=O)N[C@@H](CC(C)C)[C@@H](O)CC(=O)N[C@@H](C)C(=O)N[C@@H](CC(C)C)[C@@H](O)CC(=O)O)C(C)C)C(C)C	inactive: -8.83%	–
Cc1ccc(C(=O)N/C(=C/C=C/c2ccccc2)C(=O)NCc2ccco2)cc1	inactive: -1.32%	–
Nc1ccc(S(=O)(=O)Nc2ccnn2-c2ccccc2)cc1	inactive: -13%	–
Cc1cc(/C=C(/C#N)C(=O)Nc2ccccc2)c(C)n1-c1cccnc1	inactive: -5.18%	–
CC(C)NC[C@H](O)c1cc(O)cc(O)c1	inactive: -11.3%	–
O=C(O)C1=CCCNC1	inactive: -9.51%	–
CC12CCC(CC1)C(C)(C)O2	inactive: -11.6%	–
CCOC(=O)/C(=C/C=C/c1ccccc1)NC(=O)c1ccccc1	inactive: 0.726%	–
NCCC(=O)NCCc1cnc[nH]1	inactive: -6.76%	–
O=C(Cn1ccnc1[N+](=O)[O-])NCCO	inactive: -6.07%	–
CCCNC(C)C(=O)Nc1ccccc1C (stereo unspecified)	inactive: -0.538%	–
COc1ccc(CN(CCN(C)C)c2ccccn2)cc1	–	inactive
CC(=O)c1ccc(S(=O)(=O)NC(=O)NC2CCCCC2)cc1	inactive: -18.9%	–
CCN1/C(=C\C(C)=O)Sc2ccc(OC)cc21	inactive: 26.4%	–
N#C/C(=C\c1ccc(N2CCOCC2)o1)c1nc2ccccc2[nH]1	inactive: 32.9%	–
Cc1scc2c1N(C(=O)CN1CCN(C)CC1)c1ccccc1NC2=O	inactive: -16.4%	–
CCN1C(=O)N[C@@H](c2ccccc2)[C@@H](C(=O)OC)[C@H]1C	inactive: -0.0326% [at 9.22 µM]	–
CC(C)(C)NC[C@H](O)COc1nsnc1N1CCOCC1	inactive: -8.26%	–
COC(=O)[C@H](C)[C@H]1C[C@]1(C)[C@H](NC(=O)OCc1ccccc1)c1ccccc1	inactive: 12%	–
CCCC(=O)Nc1ncnc2c1ncn2[C@@H]1O[C@@H]2COP(=O)(O)O[C@H]2[C@H]1OC(=O)CCC	inactive: 1.48%	–
CN(C)C(=N)N=C(N)N	inactive: -0.593%	–
COc1ccc(NS(=O)(=O)c2ccc(N)cc2)nn1	–	inactive
Cn1nnnc1SCC1=C(C(=O)O)N2C(=O)[C@@H](NC(=O)[C@H](O)c3ccccc3)[C@H]2SC1	inactive: 4.22%	–

Structure (SMILES)	ratio change, negative = inhibition	Potency
Nc1ccc(S(=O)(=O)c2ccc(N)cc2)cc1	inactive: -12.6%	–
N#C/C(=C\c1ccc(N2CCCC2)c([N+](=O)[O-])c1)c1nc2ccccc2[nH]1	inactive: 19.3%	–
NCCS(=O)(=O)O	inactive: -20.1%	–
COc1nc(C)nc(Cl)c1NC1=NCCN1	inactive: -3.92%	–
Cc1ccc(S(=O)(=O)NC(=O)NN2CC3CCCC3C2)cc1 (stereo unspecified)	inactive: -7.35%	–
O=c1[nH]c2ccccc2c2ccccc12	inactive: -9.48% [at 46 µM]	–
C#CCN(C)Cc1ccccc1	inactive: -12.6%	–
CN/C(=C/[N+](=O)[O-])NCCSCc1ccc(CN(C)C)o1	inactive: 4.19%	–
O=C(CCCN1CC=C(n2c(=O)[nH]c3ccccc32)CC1)c1ccc(F)cc1	inactive: -7.14% [at 46 µM]	–
CCN(CC)CCNC(=O)c1cc(S(C)(=O)=O)ccc1OC	inactive: -7.5%	–
Oc1c(I)cc(I)c2cccnc12	inactive: -4.34%	–
CCN(Cc1ccncc1)C(=O)C(CO)c1ccccc1 (stereo unspecified)	–	inactive
O=C1S/C(=C\c2ccccc2)C(=O)N1CC(O)Cn1c2ccccc2c2ccccc21 (stereo unspecified)	inactive: -15.9%	–
COC(=O)C1=C(C)N(Cc2ccco2)C(=O)N[C@H]1c1ccccc1	inactive: -2.69%	–
Cc1ccc(/C(=C\CN2CCCC2)c2ccccn2)cc1	–	inactive
CC(=O)Nc1c(I)c(NC(C)=O)c(I)c(C(=O)O)c1I	inactive: -2.55%	–
Cc1ccc(C(=O)Nc2ccc(S(=O)(=O)O)c3cc(S(=O)(=O)O)cc(S(=O)(=O)O)c23)cc1NC(=O)c1cccc(NC(=O)Nc2cccc(C(=O)Nc3cc(C(=O)Nc4ccc(S(=O)(=O)O)c5cc(S(=O)(=O)O)cc(S(=O)(=O)O)c45)ccc3C)c2)c1	inactive: -1.51%	–
O=c1cc(O)nc(SCc2ccccc2)n1-c1ccccc1	inactive: 5.07%	–
Cn1c(SCC(=O)N/N=C/C=C/c2ccco2)nc2ccccc21	inactive: 6.47%	–
O=C1/C(=C/c2cccnc2)SC(=S)N1C1CCS(=O)(=O)C1 (stereo unspecified)	–	active: 20 µM
C[C@]12C=CC(=O)C=C1CC[C@@H]1[C@@H]2C(=O)C[C@@]2(C)[C@H]1CC[C@]2(O)C(=O)CO	inactive: -9.59%	–
NCC(O)c1ccc(O)c(O)c1 (stereo unspecified)	inactive: -25.6%	–
O=C(O)C1=CCNCC1	inactive: -4.46%	–
NS(=O)(=O)c1cc2c(cc1Cl)NCNS2(=O)=O	–	inactive
